This passage reports TetR repression strength results from a collection of fitness landscapes (doi:10.1038/s41467-024-54723-y).

Over roughly 18,000 sequences, “TetR repression strength (sort-seq, GFP reporter)” has its median near 0.23; the highest 2% begin near 0.68. Some of the results follow.

This experiment has as its target TetR (class B, Tn10) (UniProt P04483). Nature of the experiment: TetR repression strength (sort-seq, GFP reporter) (relative to tetO2 = 1); higher = stronger repression. The settings on record: E. coli. Put shortly: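 Escherichia coli SIG10-MAX cells carried a low-copy plasmid library in which eight operator positions were randomized between a constitutive promoter and sfGFP, and TetR was expressed constitutively. After 5 h of growth at 37 °C in LB with 50 µg/mL chloramphenicol, 10^6 cells were FACS-sorted into 13 fluorescence bins, and each bin was Illumina-sequenced. Repression strength was the top bin index plus one minus the read-weighted mean bin, divided by the value for the unaltered operator. Across three independent transformations, only library members with ≥30 reads in every replicate and a CV ≤0.5 were averaged.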
Chain of UniProt P04483 (P04483 whole entry): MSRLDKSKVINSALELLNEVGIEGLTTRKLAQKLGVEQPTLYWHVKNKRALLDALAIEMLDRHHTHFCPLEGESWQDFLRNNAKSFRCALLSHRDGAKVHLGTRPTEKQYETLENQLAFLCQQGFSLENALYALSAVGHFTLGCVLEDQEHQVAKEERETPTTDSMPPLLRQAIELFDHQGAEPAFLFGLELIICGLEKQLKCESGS
TCCCTGGGAGTACTAGAGA had a TetR repression strength of 0.119.

TCCCGAACAGTGGTGGAGA registered a TetR repression strength of 0.37.

Turning to TCCCAGTTAGTTTCCGAGA, the TetR repression strength is 0.292.

The sequence TCCCTGTAAGTGACCGAGA came in with a TetR repression strength of 0.222.

Turning to TCCCCTAGAGTTTAGGAGA, the TetR repression strength came out at 0.127.

TCCCATATAGTGTGGGAGA gave a TetR repression strength of 0.249.

In the case of TCCCATCCAGTCTCAGAGA, the TetR repression strength turned out to be 0.356.

Consider TCCCATTGAGTGGAGGAGA, for which the TetR repression strength was 0.28.

TCCCCAGTAGTGAACGAGA returned a TetR repression strength of 0.359.

The sequence TCCCGGGCAGTGCGCGAGA displayed a TetR repression strength of 0.237.

The sequence TCCCCCCAAGTGGAAGAGA gave a TetR repression strength of 0.32.

With TCCCACTGAGTGGCCGAGA, the TetR repression strength worked out at 0.3.

The sequence TCCCCGTGAGTTGATGAGA had a TetR repression strength of 0.21.

Sequence TCCCTGGCAGTTCAGGAGA gave a TetR repression strength of 0.203.

As to TCCCTAATAGTAACTGAGA, the TetR repression strength turned out to be 0.104.

Sequence TCCCGTTAAGTAAGAGAGA returned a TetR repression strength of 0.271.

In turn, TCCCGTACAGTTATAGAGA displayed a TetR repression strength of 0.352.

Sequence TCCCGACGAGTCCTGGAGA yielded a TetR repression strength of 0.164.

As to TCCCGTGAAGTTAGGGAGA, the TetR repression strength amounted to 0.0583.

Turning to TCCCGTCAAGTGCATGAGA, the TetR repression strength was 0.315.

In turn, TCCCGTGAAGTATTGGAGA had a TetR repression strength of 0.261.

TCCCGGCCAGTTTGAGAGA showed a TetR repression strength of 0.264.

The sequence TCCCGTCAAGTACAGGAGA yielded a TetR repression strength of 0.119.

The sequence TCCCTAGGAGTTTTCGAGA displayed a TetR repression strength of 0.181.

The sequence TCCCTGTTAGTATCTGAGA displayed a TetR repression strength of 0.484.

Regarding TCCCAAGTAGTGTCGGAGA, the TetR repression strength came out at 0.238.

TCCCGAGGAGTCGGTGAGA: the TetR repression strength was found to be 0.29.

On to TCCCGTAAAGTTGGTGAGA, for which the TetR repression strength was 0.264.

In turn, TCCCACCTAGTAGGGGAGA gave a TetR repression strength of 0.236.

In turn, TCCCAAACAGTCGTGGAGA showed a TetR repression strength of 0.311.

TCCCAGAGAGTCCGTGAGA returned a TetR repression strength of 0.114.

Turning to TCCCCTCGAGTGATGGAGA, the TetR repression strength is 0.246.

As to TCCCGCGCAGTGATGGAGA, the TetR repression strength amounted to 0.0786.

For TCCCGGCGAGTTGAGGAGA, the TetR repression strength came to 0.118.

In the case of TCCCAGGCAGTTAGCGAGA, the TetR repression strength was 0.228.

TCCCGGGCAGTCGTCGAGA: the TetR repression strength came out at 0.311.

On to TCCCGGGTAGTCGCGGAGA, for which the TetR repression strength came out at 0.198.

For TCCCGTGCAGTAAGGGAGA, the TetR repression strength came out at 0.138.

The sequence TCCCTAGCAGTGTGGGAGA registered a TetR repression strength of 0.233.

Regarding TCCCAGTCAGTTAGGGAGA, the TetR repression strength worked out at 0.112.

The sequence TCCCCGAGAGTCGGGGAGA returned a TetR repression strength of 0.311.

For TCCCATTTAGTACTGGAGA, the TetR repression strength was 0.234.

For TCCCGGATAGTATCAGAGA, the TetR repression strength was determined as 0.893.

For TCCCATCTAGTACTGGAGA, the TetR repression strength was 0.332.

With TCCCTCAAAGTCACGGAGA, the TetR repression strength came to 0.433.

As for TCCCGATGAGTGTAAGAGA, the TetR repression strength amounted to 0.203.

In turn, TCCCGGGAAGTTATGGAGA registered a TetR repression strength of 0.408.

For the sequence TCCCAGAGAGTTGTCGAGA, the TetR repression strength was 0.619.

Sequence TCCCGCAGAGTAAAGGAGA returned a TetR repression strength of 0.152.

Regarding TCCCGAGCAGTAACAGAGA, the TetR repression strength is 0.752.

The sequence TCCCGTGTAGTCACGGAGA displayed a TetR repression strength of 0.147.

As to TCCCAACGAGTACGTGAGA, the TetR repression strength is 0.272.

For the sequence TCCCGTCAAGTTGGTGAGA, the TetR repression strength amounted to 0.261.

Turning to TCCCTTGCAGTGGCGGAGA, the TetR repression strength stood at 0.245.

Turning to TCCCCGCGAGTCGGGGAGA, the TetR repression strength stood at 0.0291.

Sequence TCCCATTCAGTGGTGGAGA registered a TetR repression strength of 0.234.

As for TCCCGTAGAGTGGGAGAGA, the TetR repression strength was determined as 0.0307.

TCCCGAAGAGTTGGTGAGA yielded a TetR repression strength of 0.187.

For the sequence TCCCCAGCAGTCGGGGAGA, the TetR repression strength was found to be 0.104.

Sequence TCCCAGTCAGTGAGTGAGA showed a TetR repression strength of 0.316.

In the case of TCCCTCACAGTCAGGGAGA, the TetR repression strength turned out to be 0.104.

Sequence TCCCTCGCAGTTAATGAGA registered a TetR repression strength of 0.391.

On to TCCCAGGGAGTTTTCGAGA, for which the TetR repression strength was determined as 0.104.

With TCCCGTTGAGTACGAGAGA, the TetR repression strength amounted to 0.32.

TCCCCCGTAGTGCAGGAGA yielded a TetR repression strength of 0.201.

On to TCCCACTGAGTGACCGAGA, for which the TetR repression strength was determined as 0.265.

For the sequence TCCCCGGAAGTCGGAGAGA, the TetR repression strength stood at 0.0161.

TCCCGTGAAGTAAGCGAGA came in with a TetR repression strength of 0.404.

TCCCCAAGAGTATTTGAGA returned a TetR repression strength of 0.445.

TCCCCGGAAGTGCAGGAGA came in with a TetR repression strength of 0.314.

TCCCTCAGAGTGGGCGAGA gave a TetR repression strength of 0.177.

In turn, TCCCCGCGAGTGTTCGAGA had a TetR repression strength of 0.254.

On to TCCCTACGAGTGGCTGAGA, for which the TetR repression strength is 0.434.

TCCCTACGAGTGGAAGAGA had a TetR repression strength of 0.202.

Consider TCCCGGAAAGTGCGCGAGA, for which the TetR repression strength worked out at 0.112.

Consider TCCCCATAAGTGATTGAGA, for which the TetR repression strength was determined as 0.42.

On to TCCCGAGGAGTTGCGGAGA, for which the TetR repression strength turned out to be 0.171.

The sequence TCCCAGCTAGTTTTCGAGA displayed a TetR repression strength of 0.415.

On to TCCCGGGGAGTCGGGGAGA, for which the TetR repression strength was found to be 0.503.

As for TCCCATCCAGTCTTAGAGA, the TetR repression strength was 0.612.

On to TCCCGGCTAGTAGCAGAGA, for which the TetR repression strength was determined as 0.0201.

TCCCATCGAGTCTCGGAGA: the TetR repression strength worked out at 0.295.

Consider TCCCGGACAGTGCATGAGA, for which the TetR repression strength was 0.4.

Sequence TCCCTGCGAGTCAGGGAGA yielded a TetR repression strength of 0.248.

TCCCGGCAAGTGGGCGAGA showed a TetR repression strength of 0.298.

The sequence TCCCTTGTAGTTCAAGAGA registered a TetR repression strength of 0.258.

TCCCGATGAGTAATGGAGA: the TetR repression strength was 0.0424.

As to TCCCTTTTAGTGTAAGAGA, the TetR repression strength amounted to 0.213.

TCCCGCGCAGTATGAGAGA displayed a TetR repression strength of 0.152.

As to TCCCGTGAAGTCCTGGAGA, the TetR repression strength stood at 0.218.

Take TCCCTTGCAGTAGGGGAGA: the TetR repression strength amounted to 0.308.

TCCCGAGCAGTATGGGAGA gave a TetR repression strength of 0.194.

In turn, TCCCGCCTAGTGACAGAGA gave a TetR repression strength of 0.352.

TCCCAGTTAGTGTGGGAGA displayed a TetR repression strength of 0.161.

The sequence TCCCGTGGAGTTTTAGAGA yielded a TetR repression strength of 0.478.

Sequence TCCCCTGCAGTTAGGGAGA displayed a TetR repression strength of 0.221.

Sequence TCCCAGCAAGTGCATGAGA yielded a TetR repression strength of 0.153.

TCCCGGGGAGTCACGGAGA showed a TetR repression strength of 0.234.

Regarding TCCCTTTGAGTGCCTGAGA, the TetR repression strength turned out to be 0.207.

TCCCTTAAAGTATTTGAGA registered a TetR repression strength of 0.236.

In turn, TCCCGCGAAGTGTGGGAGA yielded a TetR repression strength of 0.233.

Turning to TCCCTAGAAGTCATGGAGA, the TetR repression strength turned out to be 0.048.
